Structures are written as SMILES. In all, about 13,000 compounds were measured (“IFI”: median about 4, highest 2% from about 17 on). The list shows a part of the results.

A short description of this experiment: GSK_TCMDC: Inhibition Frequency Index (IFI). The number of non-kinase HTS assays where a compound showed > 50 % inhibition, expressed as a percentage of the number of such assays in which the compound was tested (-0 is zero). The class given is functional.
`COc1cc2nc(N3CCC(CNCc4ccc(-c5ccc(C(F)(F)F)cc5)cc4)CC3)nc(N)c2cc1OC` had an IFI of 17.1%. The value for `COc1ccc2nc(C)cc(N/N=C/c3ccccc3[N+](=O)[O-])c2c1` was 2.94%; that for `Nc1nc(N)c2c(ccc3[nH]c(-c4ccccc4Cl)nc32)n1` was 12.1%; that for `O=C(Nc1ccc2c(c1)CCC2)N[C@H]1CCN(Cc2ccc(OCCCN3CCCCC3)cc2)C1` was 5.63%.

Consider `COc1ccc2ccccc2c1CCCCN1CCN(CC(c2ccc(F)cc2)N2CCN(C(C)C)CC2)CC1` (stereo not drawn), for which the IFI came out at 14.7%. In the case of `Cc1noc(C)c1-c1cccc(C(=O)NC2CCN(CCNC(=O)C(c3ccccc3)c3ccccc3)CC2)c1`, the IFI came to 3.5%. Consider `CC(C)C[C@H](NC(=O)[C@H](Cc1ccccc1)N(C[C@H](Cc1ccccc1)NC(=O)OC(C)(C)C)C(=O)C(F)(F)F)C(=O)NC1CCN(Cc2ccccc2)CC1`, for which the IFI stood at 5.19%. For the compound `CCN(CC)CCN(Cc1ccc(-c2ccc(C(F)(F)F)cc2)cc1)C(=O)Cn1c(CCc2ccc(F)c(F)c2)nc(=O)c2ccccc21`, the IFI came out at 9.77%. Compound `CCN(CC)CCn1c(=N)n(CC(O)c2ccc(Cl)c(Cl)c2)c2ccccc21` (stereo not drawn) yielded an IFI of 6.52%. To `CC(C)CCNc1nc2ccccc2nc1Nc1cccc(C(F)(F)F)c1` belongs 9.4%. On to `Cc1cccc(C)c1CNc1ccnc2ccccc12`, for which the IFI was -0%. To `c1ccc(-c2ccc3c(Nc4ccc5[nH]ncc5c4)ccnc3c2)nc1` belongs 5.59%; to `Cc1ccc(-n2nc3ccc(NC(=O)c4ccc([N+](=O)[O-])o4)cc3n2)cc1C`, 0.77%. The value for `CCN1CCC(N(Cc2ccc(-c3ccc(C(F)(F)F)cc3)cc2)C(=O)Cn2nc(C)c(=O)cc2SCc2ccc(F)cc2)CC1` was 19.6%; that for `COc1cccc(NC(=O)[C@H](C(C)C)n2c(=O)[nH]c3ccccc3c2=O)c1` was 0%.

The compound `CCc1cc([C@H]2O[C@@H](n3cnc4c(NCC(c5ccccc5)c5ccccc5)nc(NCCNc5ccccn5)nc43)[C@H](O)[C@@H]2O)on1` displayed an IFI of 4.38%. Take `CCS(=O)(=O)Nc1ccc2c(c1)/C(=C(/Nc1ccc(CN3CCCCC3)cc1)c1ccccc1)C(=O)N2`: the IFI amounted to 8.28%.

For `Cc1cc(Nc2cc(Cl)cc(Cl)c2)nc(N)n1`, the IFI was 1.35%. The value for `COc1ccccc1-c1cccc(Nc2c(Nc3ccc(Cl)cc3)c(=O)c2=O)c1` was 7.21%; that for `CCOC(=O)C(C)(C)Oc1ccc(CN(Cc2ccc(CC(C)C)cc2)C(=O)Nc2ccc(F)cc2F)c(OC)c1` was 1.45%.

`CN1CCN(CCCNCc2ccc(Nc3nccc(Nc4ccc(Oc5ccccc5)cc4)n3)cc2)CC1` returned an IFI of 4.41%. Regarding `CCN1CCC(N(CCCCCCc2ccc(C(F)(F)F)cc2)C(=O)Cn2c(CCc3cccc(F)c3F)cc(=O)c3ccccc32)CC1`, the IFI is 5.19%. The value for `CC(C)(C)C(=O)Nc1ccc(N2CCN(C(c3ccccc3)c3ccccc3)CC2)c(Cl)c1` was 3.51%; that for `CCN(CC)CCNc1c2ccc(Cl)cc2nc2ccc(OC)nc12` was 0.75%; that for `CN(Cc1cccc(F)c1)C1CCN(c2cc(NC(=O)c3ccc(F)cc3)ccn2)C1` (stereo not drawn) was 2.86%.

As for `CON=Cc1ccn(-c2ccc(O)c3c2C[C@H]2C[C@H]4[C@H](N(C)C)C(O)=C(C(N)=O)C(=O)[C@@]4(O)C(O)=C2C3=O)c1`, the IFI was 6.48%. In turn, `Cn1cnc2c(Nc3ccncc3)nc(-c3ccc4ccccc4c3)nc21` registered an IFI of 4.79%. On to `CCCCOc1cc2ncc(C(=O)OCC)c(O)c2cc1OCCCC`, for which the IFI was found to be 0%. The value for `Nc1nccc2ccc(-c3cccc4ncccc34)cc12` was 10%; that for `CCCCCN1CCCC(CNS(=O)(=O)c2ccc(C(=O)Nc3ccc(C(F)(F)F)cc3)cc2)C1` (stereo not drawn) was 10.6%. The value for `O=C(c1ccc([N+](=O)[O-])o1)N1CCN(c2nc3c(F)cc(F)cc3s2)CC1` was 2.13%; that for `CCCCCCN1CCC(CNCc2cccc([N+](=O)[O-])c2)CC1` was 2.16%. `CCC[C@@H](/C=N/N(C)C(=O)OC(C)(C)C)NC(=O)[C@H](CC(C)C)NC(=O)c1cc2cccc(OC)c2o1` yielded an IFI of 8.18%. `N=C(/N=C(/NCCCCCCN/C(=N\C(=N)Nc1ccc(Cl)cc1)N1CCOCC1)N1CCOCC1)Nc1ccc(Cl)cc1`: the IFI is 6.72%. `Nc1c2ccccc2nc2ccc(Cl)cc12` returned an IFI of 9.03%. With `NC1CCCN(Cc2ccc(-c3ccc(-c4nc5ccccc5[nH]4)s3)cc2)C1` (stereo not drawn), the IFI is 5.63%. To `Cc1cccc(C(=O)NC(NC(=S)Nc2ccc([N+](=O)[O-])cc2)C(Cl)(Cl)Cl)c1` (stereo not drawn) belongs 10.3%.

For `CC(C)(C)c1ccc(CN(C[C@@H](O)CNS(=O)(=O)c2cc(Cl)cc(Cl)c2)C(C)(C)C)cc1`, the IFI turned out to be 13.9%. The value for `CCN(CC)CCCn1c(N)c(-c2nc3ccccc3[nH]2)c2nc(C#N)c(C#N)nc21` was 5.52%. Take `COc1ccc2nc(Nc3nc(-c4ccccn4)cs3)sc2c1`: the IFI turned out to be 8.06%.

Compound `COc1ccc(CC(Cc2ccc(OC)cc2)NCC(O)c2cccc(Cl)c2)cc1` (stereo not drawn) displayed an IFI of 4.86%. To `O=[N+]([O-])c1cccc(CNC2CCN(Cc3ccc(-c4ccccc4)cc3)CC2)c1` belongs 4.29%. To `COc1ccc(CON2C(=N)N=C(N)NC2(C)C)cc1OC` belongs 1.47%; to `CC(=O)c1c(CC(=O)O)c2ccccc2n1O`, 4.83%; to `COc1cc2cc(C(=O)Nc3ccccc3)c(N)nc2cc1OC`, 1.28%. With `CC(C)c1ccc(O)cc1Nc1ccnc2ccc(C(F)(F)F)cc12`, the IFI was 2.31%. To `N#Cc1ccc(N(CCOC(=O)c2ccccc2)Cc2ccccc2C(F)(F)F)cc1C(F)(F)F` belongs 0.69%. To `c1ccc2c(c1)CN(CC1CC1)CC1(CCN(Cc3c[nH]c4cnccc34)CC1)O2` belongs -0%; to `C(=C(c1cccs1)c1cccs1)c1ccc(CNC2CCN(Cc3ccccc3)CC2)cc1`, 14.4%; to `CCNc1cc(C(=O)N[C@@H](Cc2ccccc2)[C@H](O)CNC23CCC(CC2)CC3)cc(N2CCCCS2(=O)=O)c1`, 2.22%. The value for `N#Cc1ccc2c(c1)CN(C1CCC(NC(=O)/C=C/c3cc(C(F)(F)F)cc(C(F)(F)F)c3)CC1)CCC2` (stereo not drawn) was 1.64%. `O=C(NCc1cccc(F)c1)c1ccc(O)c(-c2cc(Cl)cc(Cl)c2)c1` displayed an IFI of 2.19%. The value for `c1cc(C2=NC3CCCCC3N2)ccc1OCCCCCOc1ccc(C2=NC3CCCCC3N2)cc1` (stereo not drawn) was 6.16%; that for `O=C(Nc1ccccc1)N(Cc1cccc(-c2ccc(CNCc3ccc4c(c3)OCO4)cc2)c1)C1CCN(Cc2ccccc2)CC1` was 9.49%; that for `O=C(c1ccc([N+](=O)[O-])o1)N1CCN(c2ccccc2)CC1` was 2.11%. To `CN(C)CCCOc1ccc(-c2nc(-c3ccc4c(c3)CCC4=NO)c(-c3ccncc3)[nH]2)cc1` belongs 5.19%; to `COc1cc2nc(Nc3ccc(C)cc3)nc(Nc3ccc(C)cc3)c2cc1OC`, 6.48%.

As to `COc1ccc(-c2ccc(CNCc3ccsc3)cc2)cc1S(=O)(=O)NCCN1CCCC1`, the IFI worked out at 6.06%. For the compound `O=S(=O)(c1ccccc1Cl)N1CCCCC(c2ccc(C(F)(F)F)cc2)=N1`, the IFI was 0.73%.

The compound `O=C(Nc1cccc(-c2cccc(-c3nc4cc(F)ccc4[nH]3)c2)c1)Nc1ccc2c(c1)OCO2` gave an IFI of 5%.

For the compound `C=Cc1c(C2CCN(CCCCNC(=O)c3ccc(-c4ccc(C#N)cc4)cc3)CC2)ccc2c1CCCC2`, the IFI came to 9.09%. To `CCCc1cccc(C)c1OCCCON1C(=N)N=C(N)NC1(C)C` belongs 7.14%. The value for `Cc1ccc(-c2nnc(Nc3ccc(CC(N)=O)cc3)c3ccccc23)cc1S(=O)(=O)NCC1CCCO1` (stereo not drawn) was 0.68%; that for `CCN(CCNS(C)(=O)=O)c1ccc(N)c(C)c1` was 7.32%. The value for `COC(=O)[C@@H](NC(=O)[C@H](Cc1ccc(OC)c(OC)c1)Nc1ccc(C#N)c2ccccc12)c1ccc(O)cc1` was 5.77%; that for `N=C(N)Nc1nc(-c2cccc(NC(=O)NCC(c3ccccc3)c3ccccc3)c2)cs1` was 3.88%; that for `Cc1cccc(C(=O)NCCCN2CCC(NC(=O)/C=C/c3ccc(Cl)c(Cl)c3)CC2)c1` was 10%. `O=C(NCCCCCN1CCC(c2ccc(O)cc2)CC1)c1ccc(-c2ccccc2)cc1` came in with an IFI of 2.16%. The value for `Nc1ccc(-c2cnc3[nH]cc(-c4ccc(C(=O)O)cc4)c3c2)cn1` was 4.67%; that for `COc1ccc2c(NN=Cc3ccccn3)ccnc2c1` was 1.41%; that for `Cn1cnc(CCNC(=O)c2ccc(-c3cccc(-c4nc5ccccc5[nH]4)c3)cc2)c1` was 4.72%.

In turn, `COc1ccc(CN2CCCN(Cc3cccc(NC(=O)c4ccc(Cl)c(Cl)c4)c3)CC2)cc1` yielded an IFI of 9.4%.

Compound `Cn1c(NC(=O)CCCCCNC(=O)c2ccc(O)c(-c3ccc(Cl)c(Cl)c3)c2)nc2ccccc21` gave an IFI of 2.21%. The compound `Cc1cc(C)cc(CC(=O)N2CCC(n3c(C)nc4ccc(C)cc43)CC2)c1` returned an IFI of 0%. The compound `CCCCN(Cc1cnccc1-c1ccc(Br)cc1)c1ccc(C(O)(C(F)(F)F)C(F)(F)F)cc1` returned an IFI of 2.19%. `O=C(Nc1ccc(Cl)c(Cl)c1)Nc1ccc2nccc(N3CCN(Cc4ccccc4)CC3)c2c1`: the IFI turned out to be 8.03%. For the compound `N=C1NC(=N)N(OCCCCCCON2C(=N)NC(=N)NC2C=Cc2ccccc2)C(C=Cc2ccccc2)N1` (stereo not drawn), the IFI amounted to 3.52%.

As to `CCN(CC)C(=O)c1cccc(C=Cc2ccc(-c3c(C)[nH]c(C)c(Cl)c3=O)cc2)c1`, the IFI came out at 1.83%. The value for `Cc1ccccc1CNc1noc(-c2c(F)cccc2Cl)n1` was 2.86%. The value for `O=C(Nc1ccccc1)Nc1cccc(-c2ccc(-c3nc4cc(C(F)(F)F)ccc4[nH]3)cc2)c1` was 4.04%; that for `CCCC(C)Nc1nc(C)cc(N[C@@H](CC(C)C)C(=O)NCc2cccc(F)c2)n1` (stereo partly drawn) was 11.4%. Consider `c1cc(CNC2Cc3ccccc3C2)cc(-c2cnc(N3CCNCC3)nc2)c1`, for which the IFI was 11.5%. The compound `O=c1ccc2ccc(F)c3c2n1CC3CN1CCC(NCc2ccc(-c3cccc(Cl)c3)nc2)CC1` (stereo not drawn) yielded an IFI of 1.82%.

Regarding `C=CCN1Cc2c(O)cccc2C(c2ccc(O)c(O)c2)C1` (stereo not drawn), the IFI was determined as 1.47%. Turning to `O=C(Nc1ccc(C(F)(F)F)cc1)Nc1ccccc1N1CCNCC1`, the IFI was 13.8%. As to `CC(=O)Nc1ccc(NC(=O)c2cc(-c3cc(Cl)ccc3O)n[nH]2)cc1`, the IFI was 1.94%. The value for `CCOC(=O)CC[C@H](NC(=O)c1ccc(NS(=O)(=O)c2ccc(-c3cnc(N)[nH]c3=O)cc2)cc1)C(=O)OCC` was 0.75%; that for `COc1ccccc1C(C)NCC(=O)Nc1ccccc1Sc1ccccc1` (stereo not drawn) was 7.32%.

(Values after ChEMBL document CHEMBL1157539, “Thousands of chemical starting points for antimalarial lead identification” (Nature, 2010).)
